Results taken from the supplement of paper PMC3334620.
Whole data set: some 33,000 sequences, median “E-score (-0.5 to 0.5)” near -0.054, cut for the highest 2% near 0.35. The list shows a part of the results.

Each sequence was assayed against T1, Stb5 (UniProt P38699) (assay: PBM E-score (8-mer binding enrichment) (E-score (-0.5 to 0.5)); higher = stronger / more preferred TF binding; most listed sequences are background and not binding sites). Conditions: protein concentration: 200 nM; construct: GST-full length.
T1 sequence: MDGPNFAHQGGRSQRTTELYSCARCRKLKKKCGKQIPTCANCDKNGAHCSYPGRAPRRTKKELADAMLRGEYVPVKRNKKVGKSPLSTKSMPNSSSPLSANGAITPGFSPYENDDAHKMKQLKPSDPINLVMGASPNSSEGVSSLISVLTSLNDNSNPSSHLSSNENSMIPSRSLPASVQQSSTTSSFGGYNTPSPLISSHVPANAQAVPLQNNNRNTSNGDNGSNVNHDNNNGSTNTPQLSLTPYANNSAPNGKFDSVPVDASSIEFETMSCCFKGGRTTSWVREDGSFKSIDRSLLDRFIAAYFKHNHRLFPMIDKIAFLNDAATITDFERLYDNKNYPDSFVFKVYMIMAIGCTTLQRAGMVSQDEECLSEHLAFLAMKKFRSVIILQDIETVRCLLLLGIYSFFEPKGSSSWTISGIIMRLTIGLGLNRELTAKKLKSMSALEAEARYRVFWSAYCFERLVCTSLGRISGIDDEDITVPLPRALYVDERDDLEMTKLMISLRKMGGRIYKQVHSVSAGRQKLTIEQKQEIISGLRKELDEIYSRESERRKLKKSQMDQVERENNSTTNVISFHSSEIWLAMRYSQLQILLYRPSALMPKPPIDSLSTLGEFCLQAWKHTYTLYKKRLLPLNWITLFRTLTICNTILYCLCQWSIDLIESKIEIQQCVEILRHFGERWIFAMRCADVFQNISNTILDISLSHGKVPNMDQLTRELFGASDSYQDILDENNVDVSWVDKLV
Method: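 Universal 'all 10-mer' protein binding microarrays (Agilent AMADID 015681) probed with GST-tagged S. cerevisiae TFs (full-length or DBD) made by in vitro transcription/translation (PURExpress), about 100-200 nM. Bound TF was detected with fluorescent anti-GST. Each ungapped 8-mer (which stands for itself and its reverse complement) is scored by the PBM enrichment score (E-score), a modified Wilcoxon-Mann-Whitney statistic from -0.5 to +0.5, computed with the Universal PBM Analysis Suite. Scale: above 0.35 generally sequence-specific binding.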

Row | Sequence | PBM E-score
1 | CTACCAAA | -0.0199
2 | GCGTCATA | -0.0207
3 | AGAACACT | -0.173
4 | ATAGCGAG | 0.156
5 | GACAGGGC | -0.0555
6 | GACTGGGA | -0.13
7 | ACTCAGCA | -0.188
8 | AGGTCAAA | -0.19
9 | CTCGTCGC | -0.247
10 | CTCCCAAC | -0.123
11 | ACTCTCAG | -0.263
12 | GACAAGCC | 0.0151
13 | CGTCGACA | 0.0273
14 | ACCCTGCT | -0.0888
15 | CATACAAG | -0.204
16 | GGAATTAA | 0.252
17 | CCGGAAAC | 0.141
18 | GGTCAGAA | 0.135
19 | CCATGAGC | -0.222
20 | ATGTGTTG | -0.3
21 | CTCCGAAC | 0.269
22 | AACCCGCA | 0.229
23 | AGGCTTGG | -0.247
24 | ATAAATCG | 0.0618
25 | AGAAAGTC | 0.0727

Row | Sequence | PBM E-score
26 | GAGTCGAC | -0.119
27 | ACATAGTC | 0.047
28 | CACAGCCC | -0.104
29 | CAAACCGA | -0.0495
30 | GTGAAGGA | -0.186
31 | ATGAACAC | 0.0123
32 | ACGAAAAT | -0.145
33 | AAAAATTT | -0.0291
34 | GCAAAGAA | 0.0661
35 | ATACGATG | -0.089
36 | AGGGCAAG | -0.118
37 | GCTTCGCA | -0.2
38 | AACAGGGG | -0.156
39 | GAGCGAGC | -0.0655
40 | ACGTATGG | 0.0298
41 | ACTTCAAG | -0.273
42 | ACTGTCTA | -0.211
43 | AGTGCGAG | -0.223
44 | GACTCCTC | -0.225
45 | AGAGGCCA | -0.262
46 | TCGTCTAA | -0.136
47 | CCGGGATC | 0.271
48 | ATCGTGGG | -0.0717
49 | TGTCCCAA | -0.0294
50 | AGCCCGAT | 0.328

Row | Sequence | PBM E-score
51 | ATAGTCTG | -0.219
52 | CGTATCTC | 0.136
53 | AGCGGTAA | 0.34
54 | AGTTAGCA | -0.0967
55 | ACTATACG | 0.0851
56 | ATAGGCAC | -0.0742
57 | ACAATAGG | -0.0557
58 | ACCAGAGG | -0.206
59 | AATGCATA | -0.146
60 | AATAAAGA | 0.0352
61 | ATAAGTCA | -0.166
62 | TCTGAGAA | -0.317
63 | ACTTATAA | 0.186
64 | CAAGCCCG | 0.255
65 | ATCGCGAG | -0.0644
66 | AGTAGCAG | -0.241
67 | GAAGTTAC | -0.044
68 | GATTGTAC | -0.14
69 | CCAATACA | -0.126
70 | TACCAGCA | -0.165
71 | ATCATTCG | -0.151
72 | CACCATAA | -0.0593
73 | GGGAGCAC | -0.00488
74 | GTATTTTA | 0.13
75 | ACCTGTGA | -0.252

Row | Sequence | PBM E-score
76 | AGGTGTGG | -0.133
77 | GTCTAGGA | -0.0791
78 | AGATGGCG | 0.0174
79 | CAAGCCGC | 0.00962
80 | CCCTGCCC | -0.31
81 | GCTTTGTA | -0.0417
82 | ATTGCATG | -0.21
83 | ACTTTGAG | -0.172
84 | AGTAAATG | 0.137
85 | AACGATCC | -0.145
86 | ACGGTACA | 0.112
87 | ATCCCGTC | 0.262
88 | CAGTCCTC | -0.284
89 | AAGGGGGT | -0.0621
90 | AATGGTCG | 0.0414
91 | TCATGAGA | -0.117
92 | CAAAGGAG | -0.189
93 | CATGACGA | -0.12
94 | ATAAAGAG | -0.0867
95 | AAACGTGT | -0.0456
96 | GACGGCCA | 0.0605
97 | GCGCCGTA | 0.253
98 | CACTGATG | -0.213
99 | CTCATGGA | -0.198
100 | ATCCAATG | -0.285

Row | Sequence | PBM E-score
101 | AAGAGACC | 0.0225
102 | GGGATGTA | -0.0169
103 | GGGGAAAC | 0.24
104 | GTATTGAC | 0.0119
105 | ACGACCGA | 0.133
106 | GACACTCC | -0.0416
107 | CCAGGAGC | -0.0678
108 | GACACATC | 0.0343
109 | AAGAGCCA | -0.192
110 | CCTTTTAA | -0.0551
111 | CTGCGATA | -0.101
112 | TAAAGGGA | -0.0718
113 | AGATACGG | 0.17
114 | AAGTCCGA | 0.459
115 | GATATAGC | 0.265
116 | CAAGCCCA | -0.213
117 | CAATCGAA | -0.11
118 | TAGAGGCA | -0.328
119 | GTTTCTCA | -0.00586
120 | AACTGGTG | -0.103
121 | AAGCTGGA | -0.251
122 | CACCATCA | -0.111
123 | AACGTGAT | -0.138
124 | CCATGGCG | 0.128
125 | CCGATTGA | 0.201

Row | Sequence | PBM E-score
126 | CCAAAATC | 0.00739
127 | GCGCCACA | 0.0131
128 | AAATTTTA | -0.0381
129 | AGACGCCC | 0.0667
130 | ATGTGCCA | -0.289
131 | AATTACAG | 0.0714
132 | CCTATCCC | -0.0427
133 | CTTAAAGC | -0.00953
134 | ATCCTGAG | -0.196
135 | CCACTGGA | -0.0858
136 | GCATATCA | 0.0781
137 | GCCTTTCC | 0.122
138 | GGAAACCC | 0.0625
139 | GCGTTAAA | 0.142
140 | AAACCAAT | -0.0843
141 | CAGCTAAA | -0.0749
142 | CAACATGA | -0.0296
143 | AGCAGTAT | -0.298
144 | GGGGAGAC | 0.0556
145 | AACGTATT | 0.0177
146 | CTTCACGC | -0.0191
147 | ATCCACTA | -0.0942
148 | CTCCCGAA | -0.115
149 | CACAGTGC | -0.011
150 | AACTCAGA | -0.171

Row | Sequence | PBM E-score
151 | AAAATGCA | -0.0284
152 | CCTTTCCG | 0.145
153 | CGAAAAAA | 0.0463
154 | ACGCTGCG | -0.0833
155 | CTTACCTC | -0.0144
156 | ATCCCAGC | -0.0779
157 | CGCTGCAG | 0.179
158 | TCAGAGGA | -0.101
159 | AAGTAGTC | -0.0712
160 | CAAGGCCG | 0.236
161 | GATGTTAC | 0.0742
162 | GGCATAGA | 0.06
163 | AGCCACTC | -0.246
164 | CGTCCCTC | 0.0578
165 | CCGTTTCC | 0.238
166 | AAGTGGCT | -0.164
167 | GCAGACTA | -0.158
168 | GGGATGGA | 0.0483
169 | CCGAAAGC | 0.224
170 | TAACGTGA | -0.0299
171 | CATGTTCG | -0.0809
172 | CGCTCAAG | 0.0206
